In PubChem BioAssay AID1845209 (Molecular Pharmacology Branch, DTP, NCI, 2023):
The source holds more than one record for some entries. Only these are listed. There may be further records. Values given together are repeats across runs, samples, wells, individuals or studies. Brackets with × give the number of equal values in this list. Dates in brackets are months of testing.

Test system: NCI-H211 tumor spheroids, viability percent test/control
Test: Anticancer human tumor NCI-H211 cell line growth inhibition;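 further: spheroids exposed to agents for seven days before readout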
Details: spheroids with HUVEC and MSC; for viability, T/C: stronger effect = lower value
Excerpt: Multicellular complex tumor spheroid response to DNA repair inhibitors in combination with DNA-damaging drugs
This study explores the anticancer activities of DNA-damaging drugs and inhibitors of DNA damage repair, both as single agents and in combinations. Complex tumor spheroids comprised of malignant cells, endothelial cells and mesenchymal stem cells served as an in vitro model for human solid tumors. This model system incorporates physiologically relevant features and patient-derived or established malignant cell lines with clinically relevant genetic alterations from many tumor types. Twenty-six patient-derived or established malignant cell lines were evaluated representing sarcoma, melanoma, small cell lung cancer (SCLC), non-small cell lung cancer (NSCLC), as well as bladder, ovarian and pancreatic cancers. The concentration ranges selected for each drug and investigational agent were based upon clinically achievable concentrations if the clinical Cmax of the agent was known.
Compounds. The drugs and compounds olaparib (NSC753686), talazoparib (NSC767125), berzosertib (NSC777718), elimusertib (NSC800525), nedisertib (NSC802822), VX-984 (NSC792969), AZD-1390 (NSC803789), temozolomide (NSC362856), topotecan (NSC609699), trabectedin (NSC813783), staurosporine (NSC755774), and gemcitabine (NSC613327) were obtained from the National Cancer Institute (NCI) Developmental Therapeutics Program Chemical Repository. The FDA-approved anticancer drug set is available from the Developmental Therapeutics Program at https://dtp.cancer.gov/organization/dscb/obtaining/available_plates.htm. […] The stock solutions were prepared in dimethyl sulfoxide (DMSO, Sigma-Aldrich, St. Louis, MO, cat. D2650) at 400-fold the tested concentration and stored at -70 degrees C. Prior to their use, the stock solutions were diluted in fresh medium and the final DMSO concentration in the assay was 0.25% (v/v). All drugs and investigational agents were tested over a range starting from a high concentration at or near the clinical Cmax and decreasing in half-log increments. If the clinical Cmax for an agent had not been determined, the highest concentration tested was 10 microM.
Cell Lines. The patient-derived cancer cell (PDC) lines: 156681-154-R-J1-PDC, 283228-195-R-J1-PDC, 287954-098-R-J1-PDC, 292921-168-R-J2-PDC, 349418-098-R-PDC, 425362-245-T-J1-PDC, 556581-035-R-J1-PDC, and BL0293-F563-PDC were received from the NCI Patient-Derived Models Repository (PDMR, https://pdmr.cancer.gov). The established cell lines HS-SY-2 (RRID:CVCL_8719), MPNST, and SYO-1 (RRID:CVCL_7146) were obtained from the Sloan Kettering Institute. The alveolar soft parts sarcoma cell line ASPS-1 (RRID:CVCL_S738) was established at the NCI and grown from internal seed stocks. The following established cell lines were purchased from the American Type Culture Collection (ATCC, Manassas, VA): G-401 (ATCC, cat. CRL-1441, RRID:CVCL_0270), SW982 (ATCC, cat. HTB-93, RRID:CVCL_1734), VA-ES-BJ (ATCC, cat. CRL-2138, RRID:CVCL_1785), NCI-H719 (ATCC, cat. CRL-5837, RRID:CVCL_1582), NCI-H196 (ATCC, cat. CRL-5823, RRID:CVCL_1509), NCI-H841 (ATCC, cat. CRL-5845, RRID:CVCL_1595), NCI-H1618 (ATCC, cat. CRL-5879, RRID:CVCL_1480), NCI-H1876 (ATCC, cat. CRL-5902, RRID:CVCL_1503), DMS 114 (ATCC, cat. CRL-2066; RRID:CVCL_1174), NCI-H211 (ATCC, cat. CRL-5824; RRID:CVCL_1529), and SW 1271 (ATCC, cat. CRL-2177, RRID:CVCL_1716). The small cell lung cancer cell line COR-L88 was purchased from Sigma-Aldrich (cat. 92031917-1VL, RRID:CVCL_1141). The non-small cell lung cancer cell lines NCI-H226 (RRID:CVCL_1544) and NCI-H322M (RRID:CVCL_1557) were established at the NCI and grown from internal seed stocks. Pooled donor human umbilical vein endothelial cells (HUVEC, Lonza, cat. CC-2519) and human mesenchymal stem cells (hMSC, Lonza, cat. PT-2501) were purchased from Lonza (Walkersville, MD).
Cell Culture. All cells were maintained in an incubator at 37 degrees C and 5% CO2 with 95% humidity. […]

## Cn1nnc2c(C(N)=O)ncn2c1=O
Compound alone 3.16 µM
  viability, T/C: 99.8, 124, 106, 101, 99.4, 109, 113, 99.6, 97.2, 86.8%
Compound alone 31.6 µM
  viability, T/C: 64.6, 73.1, 62.4, 60.6, 63.8, 47.8, 1.32, 64.7, 44.8, 38.1%
Compound alone 100 µM
  viability, T/C: 21, 33.2, 30.4, 31.8, 33.5, 30.1, 0.89, 27.3, 21.5, 13.8%
Compound alone, run of 11/07/2019
  IC50: 43.5, 60.6, 48.8, 48.7, 53.3, 30, 16.3, 49.7, 28.1, 22.5 µM

## COc1cc2c(cc1O)CCNC21CSC2c3c(OC(C)=O)c(C)c4c(c3C(COC1=O)N1C(O)C3Cc5cc(C)c(OC)c(O)c5C(C21)N3C)OCO4 (configuration not stated)
Compound 30 pM
  viability, T/C: 104 (2×), 113, 108, 100, 86.9, 105 (2×), 98.8, 59.9%

## CC1COCCN1c1cc(-c2ccnn2C)c2ccnc(-c3ccn[nH]3)c2n1 (configuration not stated)
Compound alone 0.0316 µM
  viability, T/C: 19.6% [2019-11] and 46.5%, 8.03% [2019-12]

## CC[C@@]1(O)C(=O)OCc2c1cc1n(c2=O)Cc2cc3c(CN(C)C)c(O)ccc3nc2-1
Compound alone 0.003 µM
  viability, T/C: 84.7, 79.6, 72.2, 76.6, 82.7% [2019-11] and 65.5, 102 (2×), 99.9, 101% [2019-12]
